Where “and” joins values, the source holds several entries; their conditions need not be identical. Equal values may be shown once. Out of some 230,000 compounds screened, about 3,600 (1.6%) were called active. The inconclusive results got no clear call from the source; some entries with a clear call stand among them for comparison. Calls come from the whole dose curve; as a rule, active = well fitted inhibition curve with a large enough effect (not every such curve was filed as active); inconclusive = small, poorly fitted or top-dose-only effect, or another doubt; inactive = no such curve, though single readings can be large or run the other way. A potency beside an inconclusive call is a rough fit, not a confirmed value.
What follows are compounds tested against Lysine-specific demethylase 4E (Homo sapiens) (UniProt B2RXH2) (assay: qHTS Assay for Inhibitors of Human Jumonji Domain Containing 2E (JMJD2E)). Conditions: JMJD2E catalytic domain, FDH-coupled NADH fluorescence (FDH is formaldehyde dehydrogenase); series mostly up to 57.1 µM; activity change, negative = inhibition: at the top concentration.
Chain of UniProt B2RXH2 (B2RXH2 whole entry, looked up, the tested form may be a part): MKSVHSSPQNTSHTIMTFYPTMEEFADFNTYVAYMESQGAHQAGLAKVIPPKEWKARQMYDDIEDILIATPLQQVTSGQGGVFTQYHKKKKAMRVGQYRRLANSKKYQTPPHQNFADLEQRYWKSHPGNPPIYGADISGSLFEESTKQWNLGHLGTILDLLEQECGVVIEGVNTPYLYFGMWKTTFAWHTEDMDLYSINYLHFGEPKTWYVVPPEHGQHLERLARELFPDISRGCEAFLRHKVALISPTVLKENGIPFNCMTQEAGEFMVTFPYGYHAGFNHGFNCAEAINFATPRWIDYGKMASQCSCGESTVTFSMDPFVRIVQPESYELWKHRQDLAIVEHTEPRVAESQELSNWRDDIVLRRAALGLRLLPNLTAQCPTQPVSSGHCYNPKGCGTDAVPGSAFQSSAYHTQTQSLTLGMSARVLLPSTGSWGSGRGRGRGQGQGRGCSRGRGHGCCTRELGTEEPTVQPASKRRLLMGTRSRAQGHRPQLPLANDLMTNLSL
Note: nearly all actives have a fitted effect of over 50% in size.
Potency is the fitted concentration of half-maximal effect; tags give direction and shape of the fitted curve.
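Throughout, for activity change, negative = inhibition: 0% = wells with enzyme and -100% = buffer wells without enzyme.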

Compound | Potency | activity change, negative = inhibition
Cc1ccc2c(c1)c(CC(=O)Nc1ccc(C)c(F)c1)c(C(=O)O)n2C | inconclusive: 39.8 µM [inhibitor, single point] | 
C=C1c2c(Cl)ccc(O)c2C(O)=C2C(=O)[C@]3(O)C(O)=C(C(N)=O)C(=O)C(N(C)C)C3C(O)C12 (some centres undefined) | inconclusive: 28.2 µM [inhibitor, partial curve] | 
CCn1cnc2cc(NCc3cccc(OC)c3O)ccc21 | inconclusive: 31.6 µM [inhibitor, partial curve] | 
CC(C)NC(=S)NCc1cccs1 |  | inactive: 0.967%
COc1ccc(C2C=C(c3cccs3)Nc3nc(CCCO)nn32)cc1 (centres undefined) | inconclusive: 31.6 µM [inhibitor, partial curve] | 
COc1ccc(-c2cc(C(F)(F)F)nc(SCC(=O)Nc3ccc4c(c3)OCO4)n2)cc1OC | inconclusive: 28.2 µM [inhibitor, partial curve] | 
O=C(O)CC/C(=C\c1cccc(NC(=O)c2ccccc2Cl)c1)c1nc2ccccc2s1 | inconclusive: 14.1 µM [inhibitor, partial curve] | 
CCOc1ccccc1/C=N/NC(=O)c1cccc(S(=O)(=O)N(CC)CC)c1 | inconclusive: 39.8 µM [inhibitor, single point] | 
CCn1c(SCC(=O)N2c3ccccc3Sc3ccccc32)nnc1-c1ccco1 |  | inactive: -1.86%
Oc1ccc(/C=N/N2CCN(C3c4ccccc4-c4ccccc43)CC2)cc1O | active: 15.8 µM | 
COc1ccc(CC(=O)Nc2ccc(NC(=O)c3ccccc3F)cc2)cc1 | inconclusive: 11.2 µM [inhibitor, partial curve] | 
CCn1nc(C(=O)Nc2cccc3ccccc23)c(Cl)c1Cl | inconclusive: 35.5 µM [inhibitor, single point] | 
C[C@H](c1ccccc1)n1nnc(COCc2ccccc2)c1C#CCOCc1ccccc1 |  | inactive: -3.77%
CCOC(=O)C1CCN(S(=O)(=O)c2ccc3[nH]c(=O)c(=O)[nH]c3c2)CC1 | inconclusive: 31.6 µM [inhibitor, partial curve] | 
O=C(/C=C/c1cn(-c2ccccc2)nc1-c1cccnc1)c1ccco1 | inconclusive: 35.5 µM [inhibitor, single point] | 
COC(=O)c1ccccc1NC(=O)c1ccc2c(c1)OCCO2 | inconclusive: 39.8 µM [inhibitor, single point] | 
COc1cc(OC)c2c(c1)C(=O)OC2OC (centres undefined) | inconclusive: 22.4 µM [inhibitor, partial curve] | 
CNC(=O)c1cc2c(s1)-c1ccccc1CC2 | inconclusive: 15.8 µM [inhibitor, partial curve] | 
CCC(=O)Nc1nc(-c2ccccc2)ns1 |  | inactive: 9.61%
CC(C)CNC(=O)CSc1nnc(CN2CCCCCC2=O)n1-c1ccccn1 |  | inactive: 3.41%
O=C(NC(=S)Nc1ccc2c(c1)OCCO2)c1cccc2ccccc12 |  | inactive: 0.515%
CCOC(=O)c1[nH]c(C)c(/C(O)=C2\C(=O)C(=O)N(CCCn3ccnc3)C2c2ccncc2)c1C (centres undefined) | inconclusive: 28.2 µM [inhibitor, single point] | 

Compound | Potency | activity change, negative = inhibition
CCCNC(=O)c1cn(CC)c2cc(N3CCN(C)CC3)c(F)cc2c1=O | inconclusive: 35.5 µM [inhibitor, partial curve] | 
COCc1cc(=O)n2[nH]c(-c3cccc(Br)c3)cc2n1 | inconclusive: 25.1 µM [inhibitor, partial curve] | 
CC(C)C(=O)Nc1ccc2oc(-c3cc(F)c(F)cc3Cl)nc2c1 | inconclusive: 28.2 µM [inhibitor, partial curve] | 
O=C(NCCNCc1cccs1)c1ccccc1F | inconclusive: 31.6 µM [inhibitor, single point] | 
Cc1[nH]c(=O)c(C#N)cc1-c1ccncc1 | inconclusive: 22.4 µM [inhibitor, partial curve] and inconclusive: 39.8 µM [inhibitor, single point] | 
CCN(CC)S(=O)(=O)c1ccc(C)c(NC(=O)COc2ccc3c(C)cc(=O)oc3c2)c1 | inconclusive: 28.2 µM [inhibitor, partial curve] | 
CC(=O)N1N=C(c2ccc(Br)cc2)OC12CCCC2 | inconclusive: 35.5 µM [inhibitor, single point] | 
Cc1oc(-c2cccs2)nc1CN1CCC(c2ccccc2)CC1 | inconclusive: 35.5 µM [inhibitor, single point] | 
O=C(COc1ccc(Cl)cc1Cl)Nc1nnc(C2=COCCO2)o1 | inconclusive: 39.8 µM [inhibitor, single point] | 
CCCN1CCC(NC(=S)Nc2ccc([N+](=O)[O-])cc2)CC1 |  | inactive: -1.22%
COc1ccc(C(=O)/C=C/Nc2cccc(C)n2)cc1OC | inconclusive: 14.1 µM [inhibitor, partial curve] | 
COc1ccc(-c2n[nH]c(=S)n2-c2cc(OC)ccc2OC)cc1 |  | inactive: -7.47%
CCOC(=O)C1=C(C)NC(C)=C(C(=O)OCC)C1C | inconclusive: 28.2 µM [inhibitor, single point] and inconclusive: 35.5 µM [inhibitor, single point] | 
Cc1cc(NCCOCCO)n2ncc(-c3ccc(Cl)cc3)c2n1 | inconclusive: 28.2 µM [inhibitor, partial curve] | 
COc1cccc(NC(=O)CN(C)CC(=O)Nc2ccccc2-c2ccccc2)c1 | inconclusive: 31.6 µM [inhibitor, single point] | 
CNC(=O)COC(=O)c1ccccc1Nc1ccccc1 |  | inactive: 28.7%
CCOC(=O)c1ccc(Nc2ccc(-c3ccc(OC)c(OC)c3)nn2)cc1 |  | inactive: -8.39%
COC(=O)c1cc2oc(C)cc2n1CC(=O)N1CCCc2ccccc21 | inconclusive: 39.8 µM [inhibitor, single point] | 
Oc1ccc(/C=N/NC2=NCCCCC2)c(O)c1 | active: 22.4 µM | 
CC(C)C(C)NC(=O)COc1ccc(Sc2ccc(OCC(=O)NC(C)C(C)C)cc2)cc1 (centres undefined) |  | inactive: -5%
Cc1ccc(NC(=O)CSc2ccc(-c3ccco3)nn2)c(C)c1 | inconclusive: 25.1 µM [inhibitor, single point] | 
CCOC(=O)c1sc(NNC(=O)c2ccc(C)cc2)nc1C | inconclusive: 35.5 µM [inhibitor, single point] | 

— PubChem BioAssay AID2147 (National Center for Advancing Translational Sciences (NCATS), 2009)
